According to the supplement of paper PMC3334620:
In all, about 33,000 sequences were measured (“E-score (-0.5 to 0.5)”: median about -0.011, highest 2% from about 0.28 on). The list shows a part of the results.

molecular target: T1, Gcr1 (UniProt P07261); test: PBM E-score (8-mer binding enrichment) (E-score (-0.5 to 0.5)); higher = stronger / more preferred TF binding; most listed sequences are background and not binding sites; conditions: protein concentration: 100 nM; construct: GST-full length
T1 sequence: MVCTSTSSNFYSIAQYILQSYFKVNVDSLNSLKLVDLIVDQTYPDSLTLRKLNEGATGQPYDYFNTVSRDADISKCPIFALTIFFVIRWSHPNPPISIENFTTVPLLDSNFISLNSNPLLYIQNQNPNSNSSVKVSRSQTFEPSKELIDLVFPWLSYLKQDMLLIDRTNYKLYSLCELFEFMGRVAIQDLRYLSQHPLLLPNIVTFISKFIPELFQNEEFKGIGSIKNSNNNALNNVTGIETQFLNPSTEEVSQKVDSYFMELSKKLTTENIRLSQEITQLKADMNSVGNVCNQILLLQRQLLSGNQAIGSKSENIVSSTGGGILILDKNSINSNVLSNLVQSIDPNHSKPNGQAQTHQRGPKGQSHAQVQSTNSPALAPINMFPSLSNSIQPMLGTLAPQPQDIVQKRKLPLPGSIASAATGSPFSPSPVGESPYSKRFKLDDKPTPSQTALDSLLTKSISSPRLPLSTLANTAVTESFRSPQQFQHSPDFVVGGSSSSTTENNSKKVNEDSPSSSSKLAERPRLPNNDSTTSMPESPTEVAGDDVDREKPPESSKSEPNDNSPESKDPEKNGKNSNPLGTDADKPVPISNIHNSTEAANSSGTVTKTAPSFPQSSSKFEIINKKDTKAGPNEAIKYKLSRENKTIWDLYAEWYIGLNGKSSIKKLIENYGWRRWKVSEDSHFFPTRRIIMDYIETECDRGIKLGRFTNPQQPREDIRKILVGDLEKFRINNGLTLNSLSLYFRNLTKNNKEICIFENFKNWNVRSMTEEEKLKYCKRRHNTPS
Outline: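 Yeast transcription factors, full-length or as DNA-binding domains, were expressed with a GST tag using PURExpress in vitro transcription/translation. At about 100-200 nM they were applied to universal all-10-mer Agilent arrays, double-stranded by primer extension on fresh or once-stripped slides. Fluorescent anti-GST detected bound protein, and masliner normalised the scans. E-scores for ungapped eight-base words, pooled with reverse complements, came from the Universal PBM Analysis Suite.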

Sequence	PBM E-score
ACTGAAGA	0.106
AGGGGGAG	-0.157
AGCCGTTG	0.0658
AGAACCGG	0.214
ATCCCCAG	0.126
ACGCCTCC	0.0986
AAATCCTA	0.0198
CACCGAAA	0.189
ACCAATTG	-0.0455
ATCTGCGG	0.157
CTCACAGC	0.124
CCATGTAA	0.0814
AGCGGAAA	-0.0908
ACTCTCAT	-0.114
AGATACCA	0.246
CCGAACTC	-0.0172
AGTGCAGG	-0.0784
ACAGGGAG	0.109
GGCTGTCA	-0.0699
CCACGGCA	0.115
AGTCATTG	-0.0859
AGTGTTAG	0.0279
TCAGGCCA	-0.118
ATACCTTA	0.0274
TAAGGCAA	-0.0981

Sequence	PBM E-score
AACGAAGC	0.00062
CGACACGA	-0.0946
CTCAATTA	0.0305
CCTTCTCC	-0.0698
CCAACGTC	0.0498
ATCCTCAT	0.0995
AGGCAGTC	-0.0354
GGTCCGCA	-0.0582
CTAATAAG	0.104
ACCTGCAT	-0.0634
AAGGCATG	-0.252
AGGCGTAA	0.0474
CGCATACC	0.0741
ACTAGCAT	0.0973
ACATATTC	-0.0095
CAGACGGA	-0.102
AAACCTGT	0.048
CCGATCCA	-0.0319
AATCGGCC	-0.124
GGTGATTA	-0.0403
AACGGGCT	-0.0767
ACCCTCCA	-0.248
CATCAGGG	-0.0704
AGCAACCG	0.0554
CTGACTTC	0.0741

Sequence	PBM E-score
GGCCCCAC	0.171
CACGCTGG	-0.101
CAAGTACA	-0.0256
AAAGTTTC	-0.0214
CAGGTGAG	-0.17
GGCAATGA	-0.202
GAGTCGCA	-0.0558
AGGTTGAC	-0.121
GTACATTA	0.0835
AAGGATTA	-0.0552
CTAGTTAC	0.0374
AACTTGCG	0.179
ATCAGACA	0.0171
AATTTGCA	0.113
GCGTAACA	-0.179
GTCAAACA	-0.19
CCCATGGC	-0.0318
CTCCTTCA	-0.1
CAGGGGCA	-0.0399
AGGGATAT	-0.234
ATAAACAA	0.171
AGTTTGTG	-0.0544
CTCATGAA	-0.0263
AATTTAAC	0.0873
CACACTAC	0.0353

Sequence	PBM E-score
GTCCCGTA	-0.0249
ATCCACGG	0.116
CCGTATCC	0.0884
CATGTGCC	-0.113
TTAAAAAA	0.246
GTAGCATA	-0.0283
ATTATTCG	0.218
CGTAATAC	0.0883
CCGCTGGA	0.199
ACCCCGTG	-0.0766
CGAGCGAG	-0.157
GTAAGGAA	-0.0734
AGGTGTAG	-0.134
CATGCAGA	-0.0148
CTAGGCTA	-0.116
AGCGGCAC	-0.059
AATCGTAT	0.0808
GATATTAC	0.091
AGCGGTGC	0.00983
CGCGTTTC	-0.0862
CCCTTGGC	-0.185
GTCTGGGA	-0.192
AAATAGAA	-0.145
GGGTAACC	-0.1
AAATATTC	0.149

Sequence	PBM E-score
CGAGTAAA	0.00307
ATGTGCGG	-0.00564
ACTATTCC	0.0212
GGTACTGA	-0.058
GAGTCGCC	-0.0807
CGGTTGAG	-0.0776
GCGCTAAA	0.232
GTTCGTTA	-0.142
AAGTCGGT	-0.0631
GGCACTAC	-0.154
CGATTTAG	0.161
AACGCGTA	0.014
AGAACACG	0.156
CAACACAG	-0.126
GGCGTTGA	-0.102
GTTACTGA	-0.0899
ACCTTGCC	-0.00557
ACGCCAAC	-0.00493
GGCCGAGA	-0.181
TGCTGGAA	0.136
ACACGCCC	0.0251
GGAATCAA	0.178
GACATGGC	-0.266
CATACCCG	0.00256
GACCCGGA	-0.0989

Sequence	PBM E-score
CCAAGTGC	-0.0928
CCCGAGCA	-0.0641
CGGACAAC	-0.0131
ATAGTGAA	-0.116
GAGTACAA	-0.0749
ATGTCTTA	-0.0265
CCAGCTAA	-0.116
ATTCAGTA	0.0756
ACACGGGT	-0.114
GTAACGCA	0.0114
CCAGAGTC	0.21
ACAAACAT	0.145
AAAAGCTG	-0.181
CACATGAC	-0.16
AATAATGT	0.128
CGAACGGA	-0.0163
GTAATGCA	-0.0798
TCCCAAGA	0.0324
ACCTACAC	-0.0279
GACCGGCA	-0.0929
GTGATGAA	-0.0109
ATTTAAGA	0.0701
ACGTAGCC	0.14
ACATTACC	-0.0191
ACAGGGCT	-0.181

Sequence	PBM E-score
GTACCCCA	0.119
CTACGTCC	0.0209
CCCCTCAA	-0.118
AAGGTGTG	0.033
GGGCTTAC	-0.0118
ACATGATA	0.151
ACAGGAAA	0.125
ACCTCGAA	0.0904
CCGGGGAC	-0.00379
GTCTATCA	-0.0272
ATTAGCCA	-0.0404
AGGTTACA	-0.0235
TAGGACAA	0.00413
GCAAGTGA	-0.104
ACAGAATA	0.133
GAATACAC	-0.00547
GCTGTTCA	0.123
AATTCACG	0.0837
GTGCAGCA	-0.0521
CATGGGCA	0.115
AATCCAAA	0.205
GCCACCTA	0.0714
CCCGTGGC	0.103
GGGACGCA	0.16
AACATCCC	-0.109

Sequence	PBM E-score
AGGGCCGG	-0.0751
AACTGGGC	-0.196
AACTTTTC	0.0874
AAGTAGGG	0.187
CAACCTAC	-0.119
AAACTGCA	0.213
CAGGACGA	-0.145
AGGTTCCC	0.247
CGCTCTAG	0.0157
CGCACTAG	-0.0117
CTATCCCC	-0.118
AATTGACC	0.128
CAGTATTA	0.131
ACGAGAAT	-0.0263
GTCAGTAA	-0.264
AATATCCG	0.0616
AACTAACA	-0.0668
GTCTACAC	0.0198
CATCCCTA	-0.0284
CCTACTGC	-0.0338
ACCGGAAG	0.303
AGAGCTAT	-0.225
ACAATTGT	0.0177
ACCTATGA	-0.119
CCCTATCA	0.0995

Sequence	PBM E-score
AAGCATCT	0.229
CGAGCGAC	-0.066
AGTAACCA	0.136
AACCACTC	-0.0327
AGGGATGC	0.098
ACGAACTG	-0.0258
AAATTACG	0.178
ATTTGTCG	-0.0171
ACTATGAC	-0.13
GACTATGC	-0.023
CCGGAGCC	0.206
ATACGATA	0.111
GCCTGGCC	-0.288
ACCTTGAA	-0.131
CCTATCCA	-0.0709
ACGTAAGT	-0.0859
AAGCCTTG	-0.147
ATGGATGA	-0.0514
ATCCGTTG	0.0103
TACACGAA	0.258
GACCACCC	-0.176
CCTCATGA	-0.0561
TCACATCA	-0.063
ACCTAGTC	-0.0637
AGGGCTAT	-0.136

Sequence	PBM E-score
TACGGGAA	0.239
AGGAGTTA	-0.0906
CGGGAGAA	-0.152
ACCACCCG	-0.13
AACGTATG	-0.0753
CAAGAGGG	-0.309
CAATTTCG	0.0784
ACTAATCA	-0.0552
CCCGGAAA	0.26
ACTAGCGC	-0.0142
AAAGAGAG	-0.00056
CAGGATCG	0.154
ACACCGAG	-0.031
CCTGGAAG	0.0765
AATGGAAG	0.27
CTGCCGAA	-0.0682
ACTGGCGA	-0.102
CACTACCC	0.0415
ACGACATC	-0.0369
ATCGCTCC	-0.281
TCAAGAGA	-0.155
ACTCTTGG	0.125
CTCCGACA	-0.0826
AGGCTCTA	-0.107
CCCATCGG	0.0729

Sequence	PBM E-score
GCGCGTAC	0.03
CAGCCCGG	-0.173
CATAAGGA	-0.131
AGTCATCC	-0.25
GTTGGATA	-0.0858
ATAGGGTG	0.118
CCGCAACG	0.108
ATTATCAA	0.127
AACTGATC	-0.114
TCATATCA	0.0493
CCATCCAC	-0.0219
GAGATAAA	0.105
ACCTCAGA	0.115
AATGGATC	0.0672
GAGATCCC	0.0362
ACCGGCCA	-0.0698
AGGCCGCC	0.292
ATAGAGGA	0.346
ATGTAGCG	0.137
AGGCAGTG	-0.0295
ACCTCTCG	0.00236
ATGGTCAC	-0.0692
AACCGGAC	-0.015
ACGGAAAA	-0.00228
CGCGAGAG	-0.129

Sequence	PBM E-score
CGTTAAGA	-0.0966
CTCACAAC	0.0213
TAATCGGA	0.0478
ATCCTCGA	0.053
AGTCACAT	0.0264
TGTGGTAA	0.0312
GGCTGCAA	0.128
ACCTGCCA	0.0124
CCACAGAG	0.0219
CCAAAACA	0.0464
TCTATGAA	-0.00286
ATCCCAGA	0.191
ACATTCCA	-0.0868
TGCTTCAA	-0.178
ACAACCAG	0.0717
ATGTACCC	0.14
TAAAACGA	-0.0294
CAATGTAA	0.0141
CAAGTGAG	-0.237
AATAGAGT	0.0735
AATCGAGG	0.0685
AATGTCTG	0.0287
CGCGATGA	-0.119
CTCCACAG	-0.0833
TCCCGTCA	0.00392

Sequence	PBM E-score
TCATGACA	-0.0321
CCTGAAGA	0.17
GAACGACC	-0.165
ATTAATCA	0.0591
AGCAGGGA	-0.295
AAAACCGA	-0.223
CTAACTAG	-0.0144
CCCATCCC	-0.0408
CAGCAGAA	0.00834
GCGTCGAA	-0.0217
CCTGCGAA	0.0189
AGGCACAT	-0.0553
CACACACA	-0.0394
CGCATGAA	0.0588
AGAAGAAC	0.13
AATGTATC	-0.00652
ATGGCAAA	-0.132
AACATGAG	-0.0818
CTACACGA	0.183
AAACATCC	-0.0125
AACACGTC	-0.0973
AGGGTATC	-0.193
AACAACCT	0.108
AGATATAT	0.0972
CCGCCACA	0.185

Sequence	PBM E-score
CTTTTTCC	-0.0076
ACACTCTC	-0.0813
AGCGAAAC	0.0411
GGTAGAAA	0.00331
GCATCTCC	0.152
CGCCAACC	-0.0353
GATTTCGC	0.077
GCGTGTAC	0.0849
CCGTTGTA	-0.106
CCACGCGC	-0.106
GAGTTTCA	-0.0957
CGCGATTA	0.0269
CCCAAACA	0.0508
AATATCGC	-0.0601
ATTGATCA	-0.157
AGTGACCC	-0.125
CCCATGCG	-0.00239
TATATCAA	-0.0485
CGCCTAAA	0.183
